Measured values taken from PubChem BioAssay AID588591 (National Center for Advancing Translational Sciences (NCATS), 2011).
Among all 390,000 compounds or so, about 4,700 (1.2%) were called active. Inconclusive results, whose numbers are uncertain, are shown with a selection of clear calls. Calls follow the shape of the dose curve; as a rule, active = well fitted inhibition curve with a large enough effect; inconclusive = small, poorly fitted or top-dose-only effect, or another doubt; inactive = no such curve, though single readings can be large or run the other way. Potencies of inconclusive entries are doubtful fits and often do not repeat.

What follows are molecules tested against DNA polymerase eta (Homo sapiens) (UniProt Q9Y253) (assay: qHTS for Inhibitors of Polymerase Eta). Conditions: recombinant Pol eta, fluorescent DNA replication assay; series mostly up to 114 µM; activity change, negative = inhibition: at the top concentration.
UniProt Q9Y253, sequence (Q9Y253 whole entry, looked up): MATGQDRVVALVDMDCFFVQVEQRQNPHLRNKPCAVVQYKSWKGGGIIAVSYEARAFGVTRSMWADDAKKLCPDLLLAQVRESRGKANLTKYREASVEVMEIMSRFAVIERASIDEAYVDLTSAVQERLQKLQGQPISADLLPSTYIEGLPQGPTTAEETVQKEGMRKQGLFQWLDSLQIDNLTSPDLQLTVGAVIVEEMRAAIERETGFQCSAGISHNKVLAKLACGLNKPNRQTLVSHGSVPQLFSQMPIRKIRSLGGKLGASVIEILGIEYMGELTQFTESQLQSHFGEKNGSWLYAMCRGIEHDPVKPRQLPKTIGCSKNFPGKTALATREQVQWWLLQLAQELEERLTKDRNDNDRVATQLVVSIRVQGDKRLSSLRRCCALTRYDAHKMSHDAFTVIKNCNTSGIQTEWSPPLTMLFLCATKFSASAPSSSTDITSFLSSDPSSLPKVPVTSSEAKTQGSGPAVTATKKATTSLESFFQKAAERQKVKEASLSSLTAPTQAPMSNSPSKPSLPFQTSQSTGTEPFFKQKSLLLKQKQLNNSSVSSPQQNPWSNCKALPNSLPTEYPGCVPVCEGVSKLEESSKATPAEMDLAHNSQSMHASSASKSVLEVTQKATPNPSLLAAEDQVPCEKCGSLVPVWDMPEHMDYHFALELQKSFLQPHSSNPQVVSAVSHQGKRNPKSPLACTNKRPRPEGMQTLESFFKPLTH
Method in brief: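 Pol eta at 10 nM preincubated with compounds 15 min at room temperature; reaction started with fluorescent substrate (50 nM final) and read kinetically at 0 and 10 min.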
% is scaled to controls: 0 for no effect and ±100 for the full control effect; potency is read from the fitted curve at half-maximal effect; tags tell the direction and shape of the fitted curve.

| SMILES | activity change, negative = inhibition | Potency |
| --- | --- | --- |
| CCN(CC)S(=O)(=O)c1ccc2c(c1)N(CC(=O)Nc1ccc(C)cc1C)C(=O)C1CCCN21 (stereo not drawn) | inactive: -4.47% | – |
| Cc1ccc(S(=O)(=O)NN2C(=O)/C(=C/c3cccc(F)c3)SC2=S)cc1 | – | inconclusive: 100 µM [inhibitor, partial curve, poor fit] |
| Cc1[nH][nH]c(=O)c1C(c1c(C)[nH][nH]c1=O)c1cn(Cc2cccc3ccccc23)c2ccccc12 | – | inconclusive: 44.7 µM [inhibitor, partial curve] |
| O=S(=O)(Nc1ccc(F)cc1Cl)c1ccc(-c2cnc(C3CC3)o2)cc1 | – | inconclusive: 0.447 µM [inhibitor, partial curve, poor fit] |
| CC(C)=CCC/C(C)=C/COc1ccc2ccc(=O)oc2c1 | – | inconclusive: 89.1 µM [inhibitor, partial curve, poor fit] |
| COc1ccc2c(c1)[nH]c1c(N3CCSCC3)ncnc12 | – | inconclusive: 79.4 µM [inhibitor, partial curve, poor fit] |
| O=C(Cc1cccs1)Nc1nc(-c2cccnc2)cs1 | – | inconclusive: 22.4 µM [inhibitor, full curve, poor fit] |
| CCOC(=O)C1CCN(S(=O)(=O)c2ccc(-c3nc4ccccc4s3)s2)CC1 | – | inconclusive: 17.8 µM [inhibitor, partial curve] |
| O=C1c2cccc3cc([N+](=O)[O-])cc(c23)C(=O)N1c1ccccc1O | inactive: -17.8% | – |
| CCOC(=O)COc1ccc(Br)cc1/C=C\c1[nH]c(=O)[nH]c(=O)c1[N+](=O)[O-] | – | active: 12.6 µM |
| COc1ccc(CCNC(=O)c2c(C)oc3ncn(CC(C)C)c(=O)c23)cc1OC | inactive: -15.2% | – |
| Cc1cc2ccccc2n2c(SCC(=O)N3CCc4ccccc4C3)nnc12 | – | inconclusive: 2.24 µM [inhibitor, full curve, poor fit] |
| CCOc1ccc(C(=O)Nc2cc(-c3cn4cccnc4n3)ccc2C)cc1OCC | inactive: -11.5% | – |
| Cc1ccccc1OCC(=O)NC(Cc1c[nH]c2ccccc12)C(=O)O (stereo not drawn) | inactive: -18.8% | – |
| Cc1ccc(S(=O)(=O)Nc2nc3n(n2)C(c2ccccc2Cl)C=C(c2ccccc2)N3)cc1 (stereo not drawn) | – | inconclusive: 100 µM [inhibitor, partial curve, poor fit] |
| CCN(C(=O)c1ccc(S(=O)(=O)N2CCOCC2)cc1)C1CCS(=O)(=O)C1 (stereo not drawn) | – | inconclusive: 35.5 µM [inhibitor, partial curve, poor fit] |
| CN(Cc1ccccc1)C(=O)C1CCN(S(=O)(=O)c2ccc3nc4c(c(C(=O)O)c3c2)CCCC4)CC1 | – | active: 28.2 µM |
| COc1ccc(CNC(=O)c2cc3c(s2)-c2c(C)cccc2OC3)cc1 | inactive: -13.4% | – |
| NC(C(=O)O)C1ON=C(Cl)C1O (stereo not drawn) | – | inconclusive: 31.6 µM [inhibitor, partial curve, poor fit] |
| O=C(CSc1ccc(-c2ccco2)nn1)N1CCCC1 | inactive: -16.9% | – |
| COc1ccccc1C(=O)OCc1cc(=O)n2ccsc2n1 | – | inconclusive: 14.1 µM [inhibitor, full curve, poor fit] |

| SMILES | activity change, negative = inhibition | Potency |
| --- | --- | --- |
| Cc1ccc(NC(=S)Nc2ccc(S(=O)(=O)Nc3ncccn3)cc2)c(C)c1 | – | inconclusive: 100 µM [inhibitor, single point] |
| O=C(/C=C/c1cccc(Br)c1)c1ccc2c(c1)OCO2 | – | inconclusive: 28.2 µM [inhibitor, partial curve, poor fit] |
| O=C(Nc1ccc(S(=O)(=O)Nc2nccs2)cc1)c1cccc(N2C(=O)c3ccccc3C2=O)c1 | – | active: 50.1 µM |
| C/C(=N\Nc1ccc(Cl)c(C(=O)O)c1)c1ccc2c(c1)OCO2 | – | inconclusive: 56.2 µM [inhibitor, partial curve, poor fit] |
| CCCC(=O)Nc1ccc(-c2nc3cc(C)c(C)cc3o2)c(O)c1 | – | inconclusive: 20 µM [inhibitor, single point] |
| Cc1ccc(S(=O)(=O)c2cc3c(=O)n4ccccc4nc3n(Cc3ccco3)c2=N)cc1 | – | inconclusive: 56.2 µM [inhibitor, partial curve] |
| CC(=O)Nc1cccc(/C(C)=N/Nc2ccc(S(=O)(=O)Nc3ccccc3C(=O)O)cc2[N+](=O)[O-])c1 | – | active: 22.4 µM |
| CCOC(=O)c1c(C)[nH]c(C(=O)OC/C(O)=C(\C#N)c2nc3ccccc3[nH]2)c1C | – | inconclusive: 17.8 µM [inhibitor, partial curve, poor fit] |
| COc1ccc(-n2c(SCC(=O)Nc3nccs3)nnc2-c2ccccc2)cc1 | – | inconclusive: 22.4 µM [inhibitor, partial curve, poor fit] |
| CCC1=[N+](C)c2cccc3cccc(c23)N1C | inactive: -12.4% | – |
| O=C(COc1cccc([N+](=O)[O-])c1)N/N=C/c1ccco1 | – | inconclusive: 25.1 µM [inhibitor, partial curve, poor fit] |
| Cc1snc(SCC(=O)c2ccc(F)cc2)c1C#N | inactive: -10.2% | – |
| Oc1ccc(/C=N/Nc2ncnc3nc[nH]c23)cc1 | – | inconclusive: 89.1 µM [inhibitor, partial curve, poor fit] |
| Cc1c(NC(=O)COC(=O)c2cc(-c3ccc(-c4ccccc4)cc3)nc3ccccc23)c(=O)n(-c2ccccc2)n1C | – | inconclusive: 39.8 µM [inhibitor, partial curve, poor fit] |
| COc1ccc2nc3sc(C(=O)NCCCN4CCc5ccccc5C4)cc3cc2c1 | – | inconclusive: 22.4 µM [inhibitor, partial curve, poor fit] |
| COc1cc(OC)c(NC(=O)Cn2cnc3sc(C)c(S(=O)(=O)N4CCN(C)CC4)c3c2=O)cc1Cl | inactive: -14.1% | – |
| C=C(C)C(=O)Nc1cccc(C2=NOC3(C2)C[C@H](C(N)=O)N(C(=O)COc2ccc(Cl)cc2)C3)c1 (stereo partly drawn) | – | active: 7.94 µM |
| O=C(Cn1nnc(-c2cccs2)n1)NCc1ccco1 | inactive: 5.26% | – |
| COc1ccc(-c2oc(NC(=O)CCl)c(C#N)c2-c2ccc(OC)cc2)cc1 | – | inconclusive: 25.1 µM [inhibitor, full curve, poor fit] |
| COc1ccc(OC)c(N(CC(=O)Nc2ccccc2)S(=O)(=O)c2ccccc2)c1 | inactive: -31.6% | – |
| Cc1ccc(N(CC(=O)Nc2ccc(C)c(F)c2)S(=O)(=O)c2c(C)n[nH]c2C)cc1 | – | inconclusive: 89.1 µM [inhibitor, partial curve, poor fit] |

| SMILES | activity change, negative = inhibition | Potency |
| --- | --- | --- |
| CN(C)CCCN1C(=O)c2cccc3c(Br)ccc(c23)C1=O | inactive: -1.91% | – |
| CCOC(=O)N1CCN(C(=O)c2ccc3nc(N4CCCCC4)sc3c2)CC1 | – | inconclusive: 79.4 µM [inhibitor, single point] |
| COc1cccc(CN2CC(O)=C(c3nc(-c4ccc(Cl)cc4)cs3)C2=N)c1 | – | inconclusive: 8.91 µM [inhibitor, partial curve] |
| CCn1c(SCC(=O)Nc2sc3c(c2C(N)=O)CCC(C)C3)nnc1-c1ccco1 (stereo not drawn) | – | inconclusive: 14.1 µM [inhibitor, partial curve, poor fit] |
| COc1ccc(-c2noc(CSc3nnc(-c4ccncc4)n3-c3ccc(C)cc3)n2)cc1 | – | inconclusive: 89.1 µM [inhibitor, partial curve, poor fit] |
| Cc1ccc(CSc2nc(-c3ccccc3)c(C#N)c(=O)[nH]2)cc1 | – | inconclusive: 89.1 µM [inhibitor, single point] |
| CC(C)(C)NC(=O)CSc1nc2scc(-c3ccccc3)c2c(=O)[nH]1 | – | inconclusive: 22.4 µM [inhibitor, partial curve, poor fit] |
| COc1ccc2oc(C(=O)OCC(=O)Nc3ccc(C)c(S(=O)(=O)N4CCOCC4)c3)c(C)c2c1 | – | inconclusive: 25.1 µM [inhibitor, full curve, poor fit] |
| N#Cc1cc([N+](=O)[O-])ccc1NC(=O)COC(=O)C1CCC(=O)N1 (stereo not drawn) | – | inconclusive: 35.5 µM [inhibitor, partial curve, poor fit] |
| CCOc1ccc(NC(=O)CSc2cn(CC(=O)N3CCCCCC3)c3ccccc23)cc1 | inactive: -1.04% | – |
| CCN(CC)S(=O)(=O)c1ccc(OC)c(NC(=O)COc2ccc3c(C)cc(=O)oc3c2)c1 | – | inconclusive: 25.1 µM [inhibitor, partial curve, poor fit] |
| COc1cc2c(cc1/C=C1/NC(=O)N(CC(=O)Nc3ccccc3)C1=O)OCO2 | inactive: -3.34% | – |
| C=CCOC(=O)C1=C(C)NC(SCC(N)=O)=C(C#N)C1c1cccs1 (stereo not drawn) | – | inconclusive: 56.2 µM [inhibitor, partial curve, poor fit] |
| Cc1ccc(CNC(=O)c2c(O)nc3c(C)cccn3c2=O)cc1 | inactive: -8.77% | – |
| CCN(CC)CCCNC(=O)c1ccc2c(c1)NC(=O)C(CS(=O)(=O)Cc1cccc(Br)c1)N2 (stereo not drawn) | – | inconclusive: 100 µM [inhibitor, partial curve, poor fit] |
| Cc1c(C(=O)Nc2ccc(C(C)C)cc2)sc2nc[nH]c(=O)c12 | inactive: 2.39% | – |
| COC(=O)CCC(=O)OC1(C)C(=O)C2=CN(CCCOC(C)C)C(c3ccc(OC)cc3)=CC2=C(Br)C1=O (stereo not drawn) | – | inconclusive: 89.1 µM [inhibitor, single point] |
| Cc1cc(NS(=O)(=O)c2ccc(NC(=O)c3cc(-c4cccnc4)nc4ccc(Cl)cc34)cc2)no1 | – | inconclusive: 89.1 µM [inhibitor, single point] |
| Cc1ccc(N2NC(=O)/C(=C/c3ccc(-c4ccc(Cl)c(C(=O)O)c4)o3)C2=O)cc1 | – | active: 22.4 µM |
| CCOC(=O)c1c(C)[nH]c(C)c1S(=O)(=O)NCC(=O)N1CCN(c2cccc(C)c2)C(C)C1 (stereo not drawn) | inactive: -14.9% | – |
| NN=C1c2ccccc2C(=O)C1C(=O)C(c1ccccc1)c1ccccc1 (stereo not drawn) | – | inconclusive: 31.6 µM [inhibitor, partial curve] |
